From patent US11898187B2 (priority 2017, dated 2024)

Columns and labels:
Format in all cases: biochemical
Conditions in all cases: 4-mer peptides, fraction modified (0-1)
[1] = system: N-glycosyltransferase from Haemophilus dureyi
[2] = system: N-glycosyltransferase from Mannheimia haemolytica
[3] = system: N-glycosyltransferase from Haemophilus influenza
[4] = system: N-glycosyltransferase from Escherichia coli

Row | Substance | MO[…] [1] | MO[…] [2] | MO[…] [3] | MO[…] [4]
1 | SNHT | 0.5732 | 0.8335 | 0.1343 | –
2 | WNRT | 0.179 | 0.8021 | – | –
3 | LNMT | – | – | 0.08996 | –
4 | HNTT | – | 0.4958 | 0.08002 | –
5 | LNRT | – | 0.4577 | 0.07143 | –
6 | YNGS | – | – | – | 0.2918
7 | NNHS | 0.1079 | – | – | –
8 | WNIT | – | 0.7381 | – | –
9 | GNLS | – | – | – | 0.2519
10 | INIT | – | – | 0.08285 | 0.4002
11 | TNHT | 0.4918 | 0.7398 | 0.1278 | –
12 | TNMT | 0.08477 | – | – | –
13 | VNVS | – | – | – | 0.5169
14 | GNFS | – | – | – | 0.1529
15 | YNVT | – | 0.4902 | 0.07614 | –
16 | PNGT | 0.1306 | – | – | 0.193
17 | LNLT | – | – | 0.09507 | –
18 | LNIS | – | – | – | 0.7316
19 | WNYT | – | 0.4763 | – | –
20 | MNST | – | 0.4619 | – | –
21 | FNGT | – | – | – | 0.1939
22 | VNFT | – | – | – | 0.1644
23 | PNWS | – | – | – | 0.3348
24 | PNMS | 0.1322 | – | 0.1618 | 0.7536

Row | Substance | MO[…] [1] | MO[…] [2] | MO[…] [3] | MO[…] [4]
25 | SNST | 0.2143 | 0.6484 | – | –
26 | SNLT | 0.08552 | – | 0.04837 | –
27 | PNST | 0.6225 | 0.8397 | 0.226 | –
28 | TNTT | 0.1307 | – | – | –
29 | PNLS | – | – | 0.1658 | 0.6274
30 | TNNT | 0.136 | – | – | –
31 | VNIS | – | – | – | 0.828
32 | NNRT | 0.2318 | 0.8101 | 0.1068 | –
33 | FNVT | – | 0.4869 | 0.1217 | –
34 | NNIT | – | – | – | 0.2501
35 | HNHS | – | – | 0.06865 | –
36 | RNHT | – | – | 0.05408 | –
37 | MNLT | – | 0.5491 | 0.2478 | –
38 | HNYT | – | – | 0.04899 | –
39 | GNHT | 0.2328 | 0.7439 | – | –
40 | PNTS | 0.09756 | – | 0.05223 | –
41 | GNMS | – | – | – | 0.1652
42 | TNAT | 0.3044 | 0.7335 | 0.06444 | –
43 | MNIS | – | – | – | 0.4774
44 | TNMS | – | – | – | 0.2213
45 | ENST | 0.1377 | 0.5946 | – | –
46 | INHS | – | – | – | 0.3598
47 | WNTT | – | 0.5588 | – | –
48 | LNFS | – | – | – | 0.34

Row | Substance | MO[…] [1] | MO[…] [2] | MO[…] [3] | MO[…] [4]
49 | SNRT | 0.1781 | 0.7222 | – | –
50 | SNYS | – | – | – | 0.1892
51 | VNRT | – | 0.4794 | 0.09507 | –
52 | ANFT | 0.467 | 0.8662 | 0.4619 | –
53 | ANLT | 0.4251 | 0.7243 | 0.2953 | –
54 | PNGS | – | – | – | 0.5121
55 | ANKT | 0.0857 | – | 0.06642 | –
56 | MNAT | 0.1035 | 0.7069 | 0.05085 | –
57 | ENVT | 0.1137 | 0.663 | – | –
58 | ENHT | – | 0.4691 | – | –
59 | SNGS | – | – | – | 0.1786
60 | VNMS | – | – | – | 0.5181
61 | PNAS | 0.08678 | – | – | 0.1797
62 | ANWT | – | 0.4749 | – | –
63 | PNYS | 0.1186 | – | 0.1361 | 0.735
64 | HNIT | – | 0.5791 | 0.1346 | –
65 | GNVS | 0.0861 | – | – | 0.5613
66 | PNRS | – | – | – | 0.2652
67 | SNMT | 0.1578 | 0.5815 | – | –
68 | LNYS | – | – | – | 0.2036
69 | WNAT | 0.3664 | 0.8785 | 0.2216 | –
70 | SNTT | 0.2201 | 0.6618 | – | –
71 | MNRT | – | 0.5451 | – | –
72 | VNLT | – | – | 0.06502 | 0.1992

Row | Substance | MO[…] [1] | MO[…] [2] | MO[…] [3] | MO[…] [4]
73 | FNGS | – | – | – | 0.3834
74 | VNLS | – | – | – | 0.3417
75 | GNHS | – | – | – | 0.1945
76 | TNVS | 0.08794 | 0.5462 | – | 0.3801
77 | YNRT | – | – | 0.07918 | –
78 | SNMS | – | – | – | 0.2531
79 | LNIT | – | – | 0.06229 | 0.3587
80 | MNHS | – | – | – | 0.493
81 | ANGS | – | – | – | 0.3324
82 | ANMS | – | – | – | 0.4469
83 | VNFS | – | – | – | 0.3254
84 | GNYS | – | – | – | 0.1558
85 | TNHS | 0.08204 | – | – | –
86 | MNVS | – | – | – | 0.4349
87 | HNMT | – | – | 0.08944 | –
88 | HNVS | – | – | 0.1771 | –
89 | YNAT | – | – | – | 0.5282
90 | NNVS | 0.08844 | – | 0.06 | 0.205
91 | SNIS | – | – | – | 0.5901
92 | PNHS | 0.1562 | – | 0.09465 | 0.4372
93 | FNAT | – | – | 0.221 | –
94 | SNFT | – | 0.5376 | – | –
95 | ANFS | – | – | – | 0.3462
96 | WNGS | – | – | – | 0.5843

Row | Substance | MO[…] [1] | MO[…] [2] | MO[…] [3] | MO[…] [4]
97 | WNMT | – | 0.561 | 0.1022 | –
98 | ENRT | – | 0.5844 | – | –
99 | INTVS | – | – | 0.07728 | –
100 | VNHT | 0.1091 | – | – | –
101 | INIS | – | – | – | 0.2707
102 | SNGT | 0.1056 | – | – | –
103 | NNYT | 0.104 | 0.5404 | – | –
104 | LNHT | – | – | – | 0.199
105 | ANYS | – | – | 0.06598 | 0.3215
106 | NNTT | 0.2295 | 0.6414 | – | –
107 | INVT | – | 0.5547 | 0.3731 | 0.2088
108 | WNST | – | 0.6108 | – | –
109 | SNHS | 0.1043 | – | – | –
110 | LNYT | – | – | – | 0.157
111 | QNVT | – | 0.5232 | – | –
112 | NNIS | – | – | – | 0.4086
113 | TNIS | – | – | – | 0.5324
114 | TNST | 0.2587 | 0.6244 | – | –
115 | LNVS | – | – | – | 0.55
116 | MNHT | 0.1689 | 0.7567 | – | 0.1658
117 | NNMT | – | – | 0.07136 | –
118 | GNYT | 0.09302 | 0.5748 | – | –
119 | FNHT | – | – | 0.06027 | 0.1591
120 | WNGT | – | – | – | 0.4757

Row | Substance | MO[…] [1] | MO[…] [2] | MO[…] [3] | MO[…] [4]
121 | GNIS | – | – | – | 0.566
122 | ANRS | – | – | – | 0.1581
123 | GNIT | 0.1717 | 0.5112 | – | 0.3759
124 | YNGT | – | – | – | 0.1762
125 | GNAT | 0.1198 | 0.5492 | – | –
126 | ANLS | – | – | 0.06044 | 0.2798
127 | VNHS | – | – | – | 0.2071
128 | VNST | 0.1233 | 0.5229 | – | –
129 | LNMS | – | – | – | 0.2128
130 | ANAS | 0.09516 | – | 0.05166 | –
131 | VNYS | – | – | – | 0.3816
132 | PNFS | – | – | 0.05968 | 0.6983
133 | ANHS | 0.255 | – | 0.08916 | 0.2178
134 | ANGT | 0.1381 | 0.4631 | – | –
135 | LNHS | – | – | – | 0.5282
136 | NNST | 0.1878 | 0.6601 | – | –
137 | INMT | – | – | 0.1791 | –
138 | PNKT | 0.1186 | – | 0.1104 | –
139 | INVS | – | – | – | 0.5416
140 | FNHS | – | – | – | 0.2661
141 | HNRT | – | 0.6126 | 0.1674 | –
